From paper PMC5515408 come the findings set out here.

Some of the results follow. At the low end of the ranking the order means little.

The target of this test is MAX:MAX (p21) (UniProt P61244-2). The test is described as follows: protein-binding microarray (anti-MAX antibody). The conditions noted are these: PBM: 15 mM Tris-HCl pH 7.5, 100 mM KCl, 0.075% NP40, 7.5 mM beta-mercaptoethanol, 375 ng/ul BSA, 8 ng/ul poly(dA-dT):(dA-dT), 550 ng complex, 60 min, room …; high values mean tight binding; double strand, one strand shown; sequences stand for … in CCGGC…TTAATAGCTAAGATTACTATATCGACG
Turning to TGATGACGTGTA, the binding signal (log2 normalized fluorescence) worked out at 0.657.

The sequence TGAGTGCAGGTA returned a binding signal (log2 normalized fluorescence) of 0.133.

TGACCTTAGGTA gave a binding signal (log2 normalized fluorescence) of -0.553.

In turn, TGAGTAGCTGTA showed a binding signal (log2 normalized fluorescence) of -1.01.

Turning to TCACACGTAGGA, the binding signal (log2 normalized fluorescence) came to 2.38.

In the case of TAGTACGTGGTA, the binding signal (log2 normalized fluorescence) was 1.19.

With TGATAGCCGGTA, the binding signal (log2 normalized fluorescence) was -0.991.

On to TGAAGTCAAGTA, for which the binding signal (log2 normalized fluorescence) was -0.736.

For the sequence ATAGCTAAGATT, the binding signal (log2 normalized fluorescence) was -0.556.

With TGACCCCCTGTA, the binding signal (log2 normalized fluorescence) is 0.861.

Take CGACACGTGGGC: the binding signal (log2 normalized fluorescence) is 3.29.

In turn, TGATGATCCGTA came in with a binding signal (log2 normalized fluorescence) of -0.123.

Regarding TGAGGACACGTA, the binding signal (log2 normalized fluorescence) came to 0.341.

As to TGATTGTCCGTA, the binding signal (log2 normalized fluorescence) was -0.74.

TGAAACTCGGTA gave a binding signal (log2 normalized fluorescence) of -0.697.

TGACATTGAGTA yielded a binding signal (log2 normalized fluorescence) of -0.354.

TGATACCAGGTA gave a binding signal (log2 normalized fluorescence) of -0.589.

The sequence TGAGTCGTTGTA had a binding signal (log2 normalized fluorescence) of -0.979.

As to TGACCTGATGTA, the binding signal (log2 normalized fluorescence) was determined as 0.381.

Regarding TGAACGGATGTA, the binding signal (log2 normalized fluorescence) was -0.184.

Take TGACTCCCTGTA: the binding signal (log2 normalized fluorescence) was -0.355.

GGAGAAGTGGTA: the binding signal (log2 normalized fluorescence) was -0.423.

As for CGGCACGTTGTA, the binding signal (log2 normalized fluorescence) turned out to be 3.21.

TGATTGTACGTA returned a binding signal (log2 normalized fluorescence) of -0.688.

As for TGATATTCAGTA, the binding signal (log2 normalized fluorescence) is -0.946.

TGATGATTAGTA: the binding signal (log2 normalized fluorescence) is -0.556.

As to TGAGCTACGGTA, the binding signal (log2 normalized fluorescence) is -1.01.

As to TGAATGGACGTA, the binding signal (log2 normalized fluorescence) worked out at 0.398.

Take TGACTGACCGTA: the binding signal (log2 normalized fluorescence) was -0.313.

The sequence TGAGTCTTTGTA yielded a binding signal (log2 normalized fluorescence) of -1.22.

TGATAACGTGTA yielded a binding signal (log2 normalized fluorescence) of 2.18.

Sequence TGACCGAGGGTA displayed a binding signal (log2 normalized fluorescence) of -0.167.

Consider TGAGTTATGGTA, for which the binding signal (log2 normalized fluorescence) is -0.847.

With TGACCCGTGTTA, the binding signal (log2 normalized fluorescence) was determined as 2.22.

Turning to TGACCCGTCGTA, the binding signal (log2 normalized fluorescence) is -0.382.

As to TGACCTAGCGTA, the binding signal (log2 normalized fluorescence) is -0.52.

In turn, AGTAGGGTTGAC displayed a binding signal (log2 normalized fluorescence) of 0.441.

TGATGCCAGGTA: the binding signal (log2 normalized fluorescence) was -0.0326.

For TGACATGCGGAA, the binding signal (log2 normalized fluorescence) was determined as 2.74.

Sequence TGAGAGTGTGTA came in with a binding signal (log2 normalized fluorescence) of 0.0581.

TGAATTGCCGTA displayed a binding signal (log2 normalized fluorescence) of -0.48.

TGAAGGAACGTA showed a binding signal (log2 normalized fluorescence) of -0.721.

The sequence TGAAAGGTCGTA displayed a binding signal (log2 normalized fluorescence) of -0.323.

TGATTGTGAGTA registered a binding signal (log2 normalized fluorescence) of -0.569.

For the sequence TGAACCTGTGTA, the binding signal (log2 normalized fluorescence) amounted to 0.428.

As for TGAGATTACGTA, the binding signal (log2 normalized fluorescence) was -0.981.

TGACACGTCGGA had a binding signal (log2 normalized fluorescence) of 1.39.

Regarding TGAGGGAGAGTA, the binding signal (log2 normalized fluorescence) is -0.748.

On to TGAAGGCTTGTA, for which the binding signal (log2 normalized fluorescence) was -0.674.

In turn, TTTGACGTGGTA returned a binding signal (log2 normalized fluorescence) of 0.867.

Sequence TGAGGCCTTGTA showed a binding signal (log2 normalized fluorescence) of -0.802.

TGAGAATTCGTA came in with a binding signal (log2 normalized fluorescence) of -1.2.

In turn, TGACATTGTGTA displayed a binding signal (log2 normalized fluorescence) of 0.726.

The sequence TGATCAAACGTA came in with a binding signal (log2 normalized fluorescence) of -0.623.

Turning to TGACTCGTTGTA, the binding signal (log2 normalized fluorescence) is 0.601.

For TGAGAGCACGTA, the binding signal (log2 normalized fluorescence) is 0.492.

Sequence TGACCCTTGTTA returned a binding signal (log2 normalized fluorescence) of -0.524.

In turn, ACTTACCTCCGG registered a binding signal (log2 normalized fluorescence) of 0.0278.

Sequence TGAAAAAACGTA returned a binding signal (log2 normalized fluorescence) of -0.383.

Turning to TGAATCAATGTA, the binding signal (log2 normalized fluorescence) was -0.461.

The sequence TGACTCAACGTA had a binding signal (log2 normalized fluorescence) of -0.0147.

TGATCGGTTGTA had a binding signal (log2 normalized fluorescence) of -1.02.

In turn, TGAATTTCAGTA came in with a binding signal (log2 normalized fluorescence) of -1.16.

In turn, TGATTACTGGTA showed a binding signal (log2 normalized fluorescence) of -0.904.

TGAGGAAAGGTA had a binding signal (log2 normalized fluorescence) of -0.736.

TGAAAAACCGTA returned a binding signal (log2 normalized fluorescence) of -0.672.

As for TGATCCGACGTA, the binding signal (log2 normalized fluorescence) was -0.987.

For TGACGACAAGTA, the binding signal (log2 normalized fluorescence) was -0.466.

In turn, TCACCCGTGGTT registered a binding signal (log2 normalized fluorescence) of 2.56.

The sequence TGAGTGGAAGTA registered a binding signal (log2 normalized fluorescence) of -0.199.

As to AGACACATGGGA, the binding signal (log2 normalized fluorescence) worked out at 3.25.

Sequence TGACCAACGGTA gave a binding signal (log2 normalized fluorescence) of -0.556.

Consider TGACGTATCGTA, for which the binding signal (log2 normalized fluorescence) is -0.167.

As for TGAGTCCTAGTA, the binding signal (log2 normalized fluorescence) is -1.16.

TGACCGGGGGTA showed a binding signal (log2 normalized fluorescence) of 1.54.

In turn, TGACAGGTTGCA displayed a binding signal (log2 normalized fluorescence) of 1.38.

TATGACGTGGTA: the binding signal (log2 normalized fluorescence) came out at 1.58.

In turn, TGAGATGATGTA showed a binding signal (log2 normalized fluorescence) of -0.509.

TGACCGCCAGTA gave a binding signal (log2 normalized fluorescence) of -0.256.

TGAGACGAAGTA showed a binding signal (log2 normalized fluorescence) of -0.725.

In turn, TGGGCCGTGGTA yielded a binding signal (log2 normalized fluorescence) of 0.312.

On to TGAGTGCGGGTA, for which the binding signal (log2 normalized fluorescence) is 0.109.

In turn, TCAAAGGCCTTA displayed a binding signal (log2 normalized fluorescence) of -0.861.

TGTCACGTGGCA yielded a binding signal (log2 normalized fluorescence) of 3.04.

TGAACTCATGTA had a binding signal (log2 normalized fluorescence) of 1.71.

Sequence TGATTGTCGGTA returned a binding signal (log2 normalized fluorescence) of -0.547.

As to TGAGGGTCGGTA, the binding signal (log2 normalized fluorescence) was -0.516.

TGAGTGGTGGTA registered a binding signal (log2 normalized fluorescence) of 0.505.

TGAGTGGGTGTA had a binding signal (log2 normalized fluorescence) of 0.316.

In turn, TGACGGTGAGTA had a binding signal (log2 normalized fluorescence) of -0.348.

As to TGAATCGAGGTA, the binding signal (log2 normalized fluorescence) was -0.219.

The sequence TGAGACCGCGTA came in with a binding signal (log2 normalized fluorescence) of -0.394.

AGCCACGTGGTA gave a binding signal (log2 normalized fluorescence) of 3.13.

Consider TGAAAGGCTGTA, for which the binding signal (log2 normalized fluorescence) is -0.2.

TGACGGGGCGTA showed a binding signal (log2 normalized fluorescence) of 0.428.

For the sequence TGAGAACCAGTA, the binding signal (log2 normalized fluorescence) is -0.883.

TGCCACGTGGTG registered a binding signal (log2 normalized fluorescence) of 3.07.

In the case of TGAATGAAAGTA, the binding signal (log2 normalized fluorescence) was -0.531.

Take TGAGGTCGCGTA: the binding signal (log2 normalized fluorescence) is -0.675.

TGAATCGAAGTA: the binding signal (log2 normalized fluorescence) was -1.11.

In turn, TGAGCCTCCGTA returned a binding signal (log2 normalized fluorescence) of -1.08.

In turn, TTACACCTGGGA showed a binding signal (log2 normalized fluorescence) of 1.69.

Sequence TGACATGAAGTA returned a binding signal (log2 normalized fluorescence) of 0.66.

The sequence TGAGTACCGGTA had a binding signal (log2 normalized fluorescence) of -0.993.

As to TGATATCCCGTA, the binding signal (log2 normalized fluorescence) is -0.793.

Sequence TGATACGGTGTA returned a binding signal (log2 normalized fluorescence) of -0.45.

Turning to TGATTTGTCGTA, the binding signal (log2 normalized fluorescence) was -1.1.

Regarding TGATGAACAGTA, the binding signal (log2 normalized fluorescence) was -0.468.

Consider TGAACATTAGTA, for which the binding signal (log2 normalized fluorescence) was -0.122.

Turning to TGAACTTCTGTA, the binding signal (log2 normalized fluorescence) was -0.745.

TGATGGCGTGTA registered a binding signal (log2 normalized fluorescence) of 1.52.

TGACTTGGCGTA came in with a binding signal (log2 normalized fluorescence) of -0.637.

Regarding TGATACGATGTA, the binding signal (log2 normalized fluorescence) was -0.608.

Turning to TGAATTTACGTA, the binding signal (log2 normalized fluorescence) is -1.05.

Sequence TGACTTCTGGTA had a binding signal (log2 normalized fluorescence) of -0.72.

TGATTATTCGTA: the binding signal (log2 normalized fluorescence) was -1.41.

TTTCACGTGGTA registered a binding signal (log2 normalized fluorescence) of 3.41.

TGAACAAAGGTA gave a binding signal (log2 normalized fluorescence) of -0.6.

For the sequence TCTGACGTGGTA, the binding signal (log2 normalized fluorescence) worked out at 1.03.

In turn, TGAGGTGAAGTA came in with a binding signal (log2 normalized fluorescence) of -0.363.

Turning to TGACTCGGCGTA, the binding signal (log2 normalized fluorescence) is -0.734.

Sequence TGCCACGTCGTA yielded a binding signal (log2 normalized fluorescence) of 2.07.

TGATATCATGTA yielded a binding signal (log2 normalized fluorescence) of 0.461.

On to TGAGCTCGCGTA, for which the binding signal (log2 normalized fluorescence) is -0.391.

In turn, TGACCTCCAGTA had a binding signal (log2 normalized fluorescence) of -0.145.

Take TGATCCGAGGTA: the binding signal (log2 normalized fluorescence) is -1.01.

As to GGGCACGTGGTC, the binding signal (log2 normalized fluorescence) came to 3.13.

Consider TGCCACGTGGAA, for which the binding signal (log2 normalized fluorescence) worked out at 3.31.

As for TGAGTGCAAGTA, the binding signal (log2 normalized fluorescence) stood at 0.0591.

TGAGAAGGAGTA came in with a binding signal (log2 normalized fluorescence) of -0.827.

Take TGAGCGTTCGTA: the binding signal (log2 normalized fluorescence) is -0.463.

Turning to TGATGTAAAGTA, the binding signal (log2 normalized fluorescence) is -0.17.

As for TGAAACGAGGTA, the binding signal (log2 normalized fluorescence) was 1.04.

Regarding TGAGCAACTGTA, the binding signal (log2 normalized fluorescence) was -0.378.

With TGAACTAGGGTA, the binding signal (log2 normalized fluorescence) was -0.66.

Sequence TGACTCGCCGTA yielded a binding signal (log2 normalized fluorescence) of 0.0811.

In turn, TGAAAACTGGTA returned a binding signal (log2 normalized fluorescence) of -0.987.

As for TGACACGTGCCA, the binding signal (log2 normalized fluorescence) was 3.
